{
  "source": "the supplement of paper PMC4604168 (melanoma cell lines)",
  "note": "This is one part of the list. Single values are uncertain, as repeats are few or missing.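 Note: cells treated in 1,536-well plates, then fixed and DAPI-stained, with nuclei counted from automated high-throughput microscope images.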",
  "data": [
    {"tested_on": "WM1716", "assay": "cell count relative to DMSO control; melanoma cells; higher = more viable cells", "conditions": "library dose: standard library concentration; 72 h", "units": {"cell count": "%"}, "values": [
      {"compound": "C[C@]12O[C@H](C[C@]1(O)CO)n1c3ccccc3c3c4c(c5c6ccccc6n2c5c31)CNC4=O", "note": "[Lestaurtinib] + O=C(O)c1ccc2c(c1)nc(Nc1cccc(Cl)c1)c1ccncc12 [CX4945] (first compound 0.02 µM, partner dose 2 µM)", "cell count": 107},
      {"compound": "N.N.[Cl][Pt][Cl]", "note": "[cisplatin] + Clc1ccc(Nc2nnc(Cc3ccncc3)c3ccccc23)cc1 [vatalanib] (first compound 8 µM, partner dose 10 µM)", "cell count": 86},
      {"compound": "Cn1cc(C2=C(c3cn(C4CCN(Cc5ccccn5)CC4)c4ccccc34)C(=O)NC2=O)c2ccccc21", "note": "[Enzastaurin] + COc1cc(Nc2ncc(F)c(Nc3ccc4c(n3)NC(=O)C(C)(C)O4)n2)cc(OC)c1OC [Tamatinib] (first compound 4 µM, partner dose 2 µM)", "cell count": 32.5},
      {"compound": "N.N.[Cl][Pt][Cl]", "note": "[cisplatin] + COc1cc(Nc2ncc(F)c(Nc3ccc4c(n3)NC(=O)C(C)(C)O4)n2)cc(OC)c1OC [Tamatinib] (first compound 8 µM, partner dose 2 µM)", "cell count": 59.8},
      {"compound": "C[C@]12O[C@H](C[C@]1(O)CO)n1c3ccccc3c3c4c(c5c6ccccc6n2c5c31)CNC4=O", "note": "[Lestaurtinib] + Nc1ncn([C@H]2C[C@H](O)[C@@H](CO)O2)c(=O)n1 [decitabine] (first compound 0.02 µM, partner dose 0.5 µM)", "cell count": 73},
      {"compound": "C[As](C)SC[C@H](NC(=O)CC[C@H](N)C(=O)O)C(=O)NCC(=O)O", "note": "[Darinaparsin] + CCc1ccc(CCOc2ccc(CC3SC(=O)NC3=O)cc2)nc1 [pioglitazone] (first compound 2 µM, partner dose 10 µM)", "cell count": 63.5},
      {"compound": "C[As](C)SC[C@H](NC(=O)CC[C@H](N)C(=O)O)C(=O)NCC(=O)O", "note": "[Darinaparsin] + O=C1NC(=O)/C(=C/c2ccc(-c3ccc(F)cc3O)o2)S1 [AS252424] (first compound 2 µM, partner dose 5 µM)", "cell count": 72.4},
      {"compound": "C[C@]12O[C@H](C[C@]1(O)CO)n1c3ccccc3c3c4c(c5c6ccccc6n2c5c31)CNC4=O", "note": "[Lestaurtinib] + COc1ccc(Cl)c(Nc2nc3ccccc3nc2NS(=O)(=O)c2cccc(NC(=O)C(C)(C)N)c2)c1 [XL147] (first compound 0.02 µM, partner dose 4 µM)", "cell count": 86.5},
      {"compound": "Cn1cc(C2=C(c3cn(C4CCN(Cc5ccccn5)CC4)c4ccccc34)C(=O)NC2=O)c2ccccc21", "note": "[Enzastaurin] + OCc1c[nH]c2ccccc12 [Indole-3-carbinol] (first compound 4 µM, partner dose 4 µM)", "cell count": 82.2},
      {"compound": "C[As](C)SC[C@H](NC(=O)CC[C@H](N)C(=O)O)C(=O)NCC(=O)O", "note": "[Darinaparsin] + O=c1cc(-c2cccc3c2Sc2ccccc2S3)oc(N2CCOCC2)c1 [KU55933] (first compound 2 µM, partner dose 5 µM)", "cell count": 46},
      {"compound": "Cn1cc(C2=C(c3cn(C4CCN(Cc5ccccn5)CC4)c4ccccc34)C(=O)NC2=O)c2ccccc21", "note": "[Enzastaurin] + Cc1cc(N2CCOCC2)cc2[nH]c(-c3c(NC[C@@H](O)c4cccc(Cl)c4)cc[nH]c3=O)nc12 [BMS536924] (first compound 4 µM, partner dose 1 µM)", "cell count": 90.1},
      {"compound": "Cn1cc(C2=C(c3cn(C4CCN(Cc5ccccn5)CC4)c4ccccc34)C(=O)NC2=O)c2ccccc21", "note": "[Enzastaurin] + NC(=O)Nc1cc(-c2cccc(F)c2)sc1C(=O)N[C@H]1CCCNC1 [AZD7762] (first compound 4 µM, partner dose 0.1 µM)", "cell count": 58.7},
      {"compound": "N.N.[Cl][Pt][Cl]", "note": "[cisplatin] + CC(C)(C)c1cnc(CSc2cnc(NC(=O)C3CCNCC3)s2)o1 [SNS-032] (first compound 8 µM, partner dose 0.05 µM)", "cell count": 82},
      {"compound": "N.N.[Cl][Pt][Cl]", "note": "[cisplatin] + OCCn1cc(-c2cnc3nnn(Cc4ccc5ncccc5c4)c3n2)cn1 [PF04217903] (first compound 8 µM, partner dose 5 µM)", "cell count": 111},
      {"compound": "Cn1cc(C2=C(c3cn(C4CCN(Cc5ccccn5)CC4)c4ccccc34)C(=O)NC2=O)c2ccccc21", "note": "[Enzastaurin] + N.N.[Cl][Pt][Cl] [cisplatin] (first compound 4 µM, partner dose 8 µM)", "cell count": 104},
      {"compound": "C[C@]12O[C@H](C[C@]1(O)CO)n1c3ccccc3c3c4c(c5c6ccccc6n2c5c31)CNC4=O", "note": "[Lestaurtinib] + OCCn1cc(-c2cnc3nnn(Cc4ccc5ncccc5c4)c3n2)cn1 [PF04217903] (first compound 0.02 µM, partner dose 5 µM)", "cell count": 86.8},
      {"compound": "Cn1cc(C2=C(c3cn(C4CCN(Cc5ccccn5)CC4)c4ccccc34)C(=O)NC2=O)c2ccccc21", "note": "[Enzastaurin] + COc1ccc(Cl)c(Nc2nc3ccccc3nc2NS(=O)(=O)c2cccc(NC(=O)C(C)(C)N)c2)c1 [XL147] (first compound 4 µM, partner dose 4 µM)", "cell count": 70.7},
      {"compound": "C[As](C)SC[C@H](NC(=O)CC[C@H](N)C(=O)O)C(=O)NCC(=O)O", "note": "[Darinaparsin] + O=C(O)c1ccc(-c2c[nH]c3ncc(-c4ccccc4)cc23)cc1C1CCCC1 [GSK650394] (first compound 2 µM, partner dose 0.8 µM)", "cell count": 77.4},
      {"compound": "C[As](C)SC[C@H](NC(=O)CC[C@H](N)C(=O)O)C(=O)NCC(=O)O", "note": "[Darinaparsin] + COc1cc2ncnc(Nc3ccc(Oc4ccccc4)cc3)c2cc1OC [SrcI1] (first compound 2 µM, partner dose 10 µM)", "cell count": 59.3},
      {"compound": "N.N.[Cl][Pt][Cl]", "note": "[cisplatin] + C=CCNC1=C2C[C@@H](C)C[C@H](OC)[C@H](O)[C@@H](C)/C=C(\\C)[C@H](OC(N)=O)[C@@H](OC)/C=C\\C=C(/C)C(=O)NC(=CC1=O)C2=O [Tanespimycin] (first compound 8 µM, partner dose 0.01 µM)", "cell count": 75.9},
      {"compound": "C[C@]12O[C@H](C[C@]1(O)CO)n1c3ccccc3c3c4c(c5c6ccccc6n2c5c31)CNC4=O", "note": "[Lestaurtinib] + Cn1c(Nc2ccc(C(F)(F)F)cc2)nc2cc(Oc3ccnc(-c4ncc(C(F)(F)F)[nH]4)c3)ccc21 [CHIR265] (first compound 0.02 µM, partner dose 0.4 µM)", "cell count": 71.6}
    ]}
  ]
}
